Measurements reported in PMC3158094.
Residue numbers refer to the chain shown, from its start. In names and notes the source's numbering stands. No constants are given. Whether binding was seen depends on the method and setting. In cells and extracts the contact can be indirect. Some entries that bind do so weakly or less than the wild type. Sequences can lack the tags named with a protein.

What was measured:
[1] = biological target: T1, GST-CBR (Crk binding region of C3G, residues 268-648, fused to GST) (UniProt Q13905); assay: pull-down; GST or GST-CBR coupled to glutathione-agarose beads, incubated with lysates of HEK293 cells expressing GFP or GFP-TC-PTP constructs; washed beads blotted for GFP; only the target purified
T1 sequence: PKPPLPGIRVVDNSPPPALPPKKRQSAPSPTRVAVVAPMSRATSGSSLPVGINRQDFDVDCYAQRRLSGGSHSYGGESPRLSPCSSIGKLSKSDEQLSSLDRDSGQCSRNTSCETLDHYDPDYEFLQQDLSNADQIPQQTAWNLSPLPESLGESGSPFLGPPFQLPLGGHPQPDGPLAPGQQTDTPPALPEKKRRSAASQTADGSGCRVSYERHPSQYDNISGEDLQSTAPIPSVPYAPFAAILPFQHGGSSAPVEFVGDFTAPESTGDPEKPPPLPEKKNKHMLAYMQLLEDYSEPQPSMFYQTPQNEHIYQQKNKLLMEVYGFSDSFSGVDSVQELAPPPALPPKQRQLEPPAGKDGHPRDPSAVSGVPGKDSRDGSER

[2] = biological target: T2, GFP-mTC48 (TC48 D182A, catalytically inactive substrate trap mutant) (UniProt P17706); assay: condition: only cells treated with 50µM vanadate (VO4) for 4 hrs; co-IP; as a1, GFP-mTC48 immunoprecipitated from HEK293 cells expressing C3G and GFP-mTC48 that were treated with 50 µM vanadate for 4 hrs and 10 min with pervanadate before lysis
T2 sequence: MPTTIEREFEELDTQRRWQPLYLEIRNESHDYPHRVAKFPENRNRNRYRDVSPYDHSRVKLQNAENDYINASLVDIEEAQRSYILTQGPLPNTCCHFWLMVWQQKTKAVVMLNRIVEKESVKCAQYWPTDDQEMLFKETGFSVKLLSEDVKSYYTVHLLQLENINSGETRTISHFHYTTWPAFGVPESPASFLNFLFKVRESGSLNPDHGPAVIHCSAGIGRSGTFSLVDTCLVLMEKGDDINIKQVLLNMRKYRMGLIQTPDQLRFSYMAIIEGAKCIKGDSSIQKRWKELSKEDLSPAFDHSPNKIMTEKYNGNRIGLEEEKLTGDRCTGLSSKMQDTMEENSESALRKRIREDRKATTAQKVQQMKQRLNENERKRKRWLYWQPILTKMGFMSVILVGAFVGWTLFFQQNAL

[3] = biological target: T2, GFP-mTC48 (TC48 D182A, catalytically inactive substrate trap mutant); assay: co-IP; GFP antibody or control mouse IgG, protein A/G plus agarose, from lysates of HEK293 cells expressing C3G and GFP-mTC48 (or GFP and C3G, or mTC48 alone); blots for C3G and GFP; in Fig. 1D cells treated 10 min with pervanadate before lysis
[4] = biological target: T3, C3G (RapGEF1), full length, exogenously expressed (UniProt Q13905); assay: co-IP; C3G antibody or control IgG, from lysates of HEK293 cells expressing C3G and GFP-Src with either TC48 or mTC48; TC48 cells with or without sodium vanadate treatment; blots with the indicated antibodies
T3 sequence: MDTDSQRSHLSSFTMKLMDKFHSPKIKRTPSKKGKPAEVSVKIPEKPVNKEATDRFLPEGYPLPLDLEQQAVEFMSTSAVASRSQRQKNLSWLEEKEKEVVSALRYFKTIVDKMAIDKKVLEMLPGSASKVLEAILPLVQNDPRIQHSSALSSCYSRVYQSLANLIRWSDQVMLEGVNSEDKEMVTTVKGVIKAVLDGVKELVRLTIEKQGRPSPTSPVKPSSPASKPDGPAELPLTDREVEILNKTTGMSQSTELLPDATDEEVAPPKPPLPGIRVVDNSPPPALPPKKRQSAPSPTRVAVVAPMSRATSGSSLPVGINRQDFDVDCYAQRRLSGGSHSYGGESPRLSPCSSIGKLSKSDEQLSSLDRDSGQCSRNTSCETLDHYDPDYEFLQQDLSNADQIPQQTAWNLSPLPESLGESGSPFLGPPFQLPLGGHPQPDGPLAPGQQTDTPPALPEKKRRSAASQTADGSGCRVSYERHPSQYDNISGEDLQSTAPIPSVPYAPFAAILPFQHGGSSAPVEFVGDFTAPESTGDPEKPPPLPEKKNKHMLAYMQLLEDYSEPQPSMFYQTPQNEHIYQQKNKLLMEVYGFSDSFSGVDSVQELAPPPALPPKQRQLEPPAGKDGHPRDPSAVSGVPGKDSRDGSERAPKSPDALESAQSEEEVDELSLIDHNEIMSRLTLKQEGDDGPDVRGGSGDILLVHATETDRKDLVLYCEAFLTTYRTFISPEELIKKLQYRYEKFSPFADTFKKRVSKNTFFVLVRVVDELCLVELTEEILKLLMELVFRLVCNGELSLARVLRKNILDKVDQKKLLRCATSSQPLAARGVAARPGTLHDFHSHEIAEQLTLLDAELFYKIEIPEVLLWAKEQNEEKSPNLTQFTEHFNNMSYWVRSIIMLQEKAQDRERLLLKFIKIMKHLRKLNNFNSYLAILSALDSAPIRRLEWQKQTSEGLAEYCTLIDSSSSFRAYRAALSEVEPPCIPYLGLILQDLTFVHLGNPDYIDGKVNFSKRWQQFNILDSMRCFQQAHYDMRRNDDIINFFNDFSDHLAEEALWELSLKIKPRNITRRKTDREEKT

B1: GFP-TC45 (TC-PTP isoform TC45) (enzyme, UniProt P17706-2 1-387)
chain: MPTTIEREFEELDTQRRWQPLYLEIRNESHDYPHRVAKFPENRNRNRYRDVSPYDHSRVKLQNAENDYINASLVDIEEAQRSYILTQGPLPNTCCHFWLMVWQQKTKAVVMLNRIVEKESVKCAQYWPTDDQEMLFKETGFSVKLLSEDVKSYYTVHLLQLENINSGETRTISHFHYTTWPDFGVPESPASFLNFLFKVRESGSLNPDHGPAVIHCSAGIGRSGTFSLVDTCLVLMEKGDDINIKQVLLNMRKYRMGLIQTPDQLRFSYMAIIEGAKCIKGDSSIQKRWKELSKEDLSPAFDHSPNKIMTEKYNGNRIGLEEEKLTGDRCTGLSSKMQDTMEENSESALRKRIREDRKATTAQKVQQMKQRLNENERKRKRPRLTDT
- binding [1]: binds

Binder: RKRIREDRKATTAQKVQQMKQRLNENERKRKRPRLTDT (domain or fragment, UniProt P17706-2 350-387) [GFP-TC45-C38 (C-terminal residues 350-387 of TC45)]
- binding [1]: binds

B2: C3G (RapGEF1), full length, exogenously expressed (protein, UniProt Q13905 1-1077)
chain: T3 sequence
- binding [2]: no binding
- binding [3]: binds

B3: cellular (endogenous) C3G of HEK293 cells (protein, UniProt Q13905 1-1077)
chain: T3 sequence
- binding [3]: binds

B4: GFP-TC48 (wild type TC-PTP isoform TC48) (enzyme, UniProt P17706-1 1-415)
chain: T2 sequence with A182D
- binding [4]: binds
- binding [1]: binds

B5: GFP-mTC48 (TC48 D182A, catalytically inactive substrate trap mutant) (enzyme, UniProt P17706-1 1-415)
chain: T2 sequence
- binding [4]: binds

B6: GFP-TC48-C-66 (C-terminal residues 350-416 of TC48) (domain or fragment, UniProt P17706-1 350-415)
chain: RKRIREDRKATTAQKVQQMKQRLNENERKRKRWLYWQPILTKMGFMSVILVGAFVGWTLFFQQNAL
- binding [1]: binds
